Data reported in PubChem BioAssay AID2101 (National Center for Advancing Translational Sciences (NCATS), 2009).
About 300 (0.091%) of roughly 330,000 compounds were called active. The inconclusive results got no clear call from the source; some entries with a clear call stand among them for comparison. The call rests on the fitted dose curve; in most records, active means well fitted inhibition curve with a large enough effect; inconclusive means small, poorly fitted or top-dose-only effect, or effect the other way, or another doubt; inactive means no such curve, though single readings can be large or run the other way. No potency is given beside an inconclusive call; the fits are too rough.

Target: Lysosomal acid glucosylceramidase (Homo sapiens) (UniProt P04062)
Assay: qHTS Assay for Inhibitors and Activators of N370S glucocerebrosidase as a Potential Chaperone Treatment of Gaucher Disease;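 on activity change, negative = inhibition: 0% = full enzyme activity and -100% = no enzyme basal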
Settings: N370S GC spleen homogenate, 4MU-glucoside fluorescence; activity change, negative = inhibition: at 59.4 µM (top of the series) unless noted
Potency means the concentration at half of the fitted maximal effect.

Row | Structure (SMILES) | Potency | activity change, negative = inhibition
1 | Cc1ccc(-c2nc(C#N)c(N3CCC(C)CC3)o2)cc1 | inconclusive [activator, single point] | –
2 | CCCOc1ccc(N2CC(C(=O)NC(C)C)CC2=O)cc1 (configuration not stated) | – | inconclusive: 41.8% [activator]
3 | COc1ccccc1C1=Nn2c(nnc2-c2ccccc2O)SC1 | inconclusive [activator, single point] | –
4 | OC[C@@H]1O[C@@H](Oc2ccc(O)cc2)[C@H](O)[C@@H](O)[C@@H]1O | inactive | –
5 | CCCCNS(=O)(=O)c1ccc2nc(-c3cccs3)cc(C(=O)NCC(OC)OC)c2c1 | inconclusive [activator, single point] | –
6 | CCn1c(CC(=O)Nc2ccc(C)cc2)nnc1SCC(=O)NCc1ccccc1 | inconclusive [activator, partial curve] | –
7 | Cc1ccccc1C(=O)Nc1cccc(-c2ccc(N3CCOCC3)nn2)c1 | inactive | –
8 | CC(C)n1cnc2c(N(C)c3ccccc3)nc(N(CCN(C)C)Cc3ccccc3)nc21 | inconclusive [inhibitor, partial curve] | –
9 | O=C(C1=C[C@H](c2ccc(C(F)(F)F)cc2)C[C@H](OCCCCO)O1)N1CCN(Cc2ccccc2)CC1 | inconclusive [inhibitor, single point] | –
10 | CCCCCCc1cc2cc(C(=O)NCc3ccccc3)c(=N)oc2cc1O | inconclusive [activator, partial curve] | –
11 | Cc1cc(C)cc(NC(=O)c2cc(C)nn2C)c1 | inconclusive [inhibitor, single point] | –
12 | COc1ccc(CN2C(=O)c3ccccc3C2=O)cc1C(=O)Nc1ccccc1N1CCOCC1 | inconclusive [activator, partial curve] | –
13 | O=C(c1ccc(Br)cc1)N(Cc1nc2ccccc2c(=O)[nH]1)C1CCCC1 | inconclusive [activator, partial curve] | –
14 | CN(C)c1ccc(N=Nc2ccccc2C(=O)OCC(=O)N2CCCC2)cc1 | inconclusive [activator, single point] | –
15 | CN1CCC(Oc2ccc(Sc3ccccc3)cc2)CC1 | inconclusive [inhibitor, single point] | –
16 | CCC(C)c1ccc(NC(=O)c2cnn3c(C(F)F)cc(C)nc23)cc1 (configuration not stated) | inconclusive [activator, full curve] | –
17 | CN(C)S(=O)(=O)n1cc(/C=C(\NC(=O)c2ccccc2Cl)C(=O)NCCCn2ccnc2)c2ccccc21 | inconclusive [inhibitor, single point] | –
